Consider 115 sequences from the BET-seq Pho4 binding data (Le et al. 2018).

The list shows a part of the results. The energies were worked out here from pooled read counts, against the library average; single values are noisy.

This assay deals with T1, Pho4 (S. cerevisiae) (UniProt P07270).
T1 sequence: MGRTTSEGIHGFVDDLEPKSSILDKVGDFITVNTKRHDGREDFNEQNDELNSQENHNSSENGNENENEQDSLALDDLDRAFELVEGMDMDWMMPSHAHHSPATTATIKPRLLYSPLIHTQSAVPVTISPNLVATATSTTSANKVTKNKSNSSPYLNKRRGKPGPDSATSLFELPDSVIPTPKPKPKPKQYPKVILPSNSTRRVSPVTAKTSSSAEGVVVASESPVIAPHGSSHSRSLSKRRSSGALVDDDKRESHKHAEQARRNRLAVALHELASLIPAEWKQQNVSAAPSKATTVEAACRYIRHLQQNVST
The experiment in a line: relative binding free energy (BET-seq); higher = weaker binding. The conditions noted are these: reference: library average.
As to CGTTGCACGTGGTCTG, the “relative binding free energy” value is -0.03 kcal/mol.
Consider TTCTACACGTGTGGAT, for which the “relative binding free energy” value amounted to 0.14 kcal/mol.
As to AGTGACACGTGTGTGG, the “relative binding free energy” value is 0.1 kcal/mol.
As to AGGTACACGTGGTAGC, the “relative binding free energy” value was -0.04 kcal/mol.
Regarding CAGGACACGTGGCGGT, the “relative binding free energy” value is -0.12 kcal/mol.
For GAGAGCACGTGTGTAT, the “relative binding free energy” value was -0.03 kcal/mol.
For the sequence GAAGTCACGTGCGGCG, the “relative binding free energy” value is 0.19 kcal/mol.
Next, TTGTTCACGTGGGCCT: 0.25 kcal/mol; ACGGTCACGTGAGGGG: 0.16 kcal/mol.
Turning to GGAGGCACGTGGCGTC, the “relative binding free energy” value was -0.23 kcal/mol.
The same measure for GGTGCCACGTGTGTGA: -0.09 kcal/mol; for ACGTTCACGTGGTATT: 0.14 kcal/mol; for TCTCGCACGTGGGGTG: -0.29 kcal/mol.
Consider AGGGACACGTGGCTGG, for which the “relative binding free energy” value is -0.18 kcal/mol.
In the case of CTTTGCACGTGGTATG, the “relative binding free energy” value was -0.1 kcal/mol.
Regarding GAGGTCACGTGGGATA, the “relative binding free energy” value amounted to 0.17 kcal/mol.
Next, GGTTTCACGTGCTTGG: 0.31 kcal/mol; AGGTTCACGTGTTTGC: 0.2 kcal/mol.
Turning to GGACGCACGTGTAGTG, the “relative binding free energy” value is -0.18 kcal/mol.
On to AGTTGCACGTGTAAAT, for which the “relative binding free energy” value is 0.15 kcal/mol.
For GAGTTCACGTGGGGGC, the “relative binding free energy” value was 0.35 kcal/mol.
Consider GGCGGCACGTGAGTAG, for which the “relative binding free energy” value is 0.13 kcal/mol.
Next, CAAGGCACGTGGAGTT: -0.16 kcal/mol.
Next, CGTGGCACGTGGCATT: -0.14 kcal/mol; GTAGGCACGTGAGGAC: 0.25 kcal/mol; CGGGGCACGTGAGGAT: 0.1 kcal/mol.
GGCTGCACGTGGGCGG: the “relative binding free energy” value was -0.21 kcal/mol.
As to GGGGGCACGTGAAGTA, the “relative binding free energy” value is 0.16 kcal/mol.
In the case of TCCGGCACGTGGGGCG, the “relative binding free energy” value was -0.27 kcal/mol.
The same measure for GTGGGCACGTGTTATC: 0.07 kcal/mol.
On to CGGAGCACGTGCAGTG, for which the “relative binding free energy” value was -0.14 kcal/mol.
On to TTATGCACGTGTGAGA, for which the “relative binding free energy” value was found to be 0.1 kcal/mol.
On to GCTGGCACGTGGGTAA, for which the “relative binding free energy” value was -0.24 kcal/mol.
On to GTAGGCACGTGGTTTG, for which the “relative binding free energy” value was -0.04 kcal/mol.
The same measure for GGTTACACGTGGTCGG: 0.2 kcal/mol; for TTTGGCACGTGATATT: -0.06 kcal/mol.
For GAGTGCACGTGCTGTG, the “relative binding free energy” value is -0.01 kcal/mol.
The same measure for GGCAACACGTGAGGTG: 0.31 kcal/mol; for AATTTCACGTGGCAGT: 0.18 kcal/mol; for AATATCACGTGGGCTT: 0.24 kcal/mol.
For TTCAACACGTGTGTGG, the “relative binding free energy” value turned out to be 0.1 kcal/mol.
For GGGTTCACGTGGACGA, the “relative binding free energy” value is 0.28 kcal/mol.
Take AACATCACGTGGGGTG: the “relative binding free energy” value stood at 0 kcal/mol.
Regarding TTATTCACGTGGTCAG, the “relative binding free energy” value amounted to 0.23 kcal/mol.
On to GCTGTCACGTGTGTGG, for which the “relative binding free energy” value came to 0.12 kcal/mol.
With TGTAGCACGTGGGTCG, the “relative binding free energy” value is -0.16 kcal/mol.
In the case of TTTGTCACGTGAGCTG, the “relative binding free energy” value is 0.29 kcal/mol.
In the case of TGTCGCACGTGAGTAT, the “relative binding free energy” value was found to be 0.17 kcal/mol.
With TAGGGCACGTGATATT, the “relative binding free energy” value worked out at 0 kcal/mol.
On to GTAAGCACGTGTGGTA, for which the “relative binding free energy” value is -0.01 kcal/mol.
The same measure for GTCTCCACGTGTTTGG: 0.13 kcal/mol; for TGGGTCACGTGAGCAT: 0.23 kcal/mol; for GTCGGCACGTGTATGT: -0.11 kcal/mol.
As to GGTCACACGTGTAGGT, the “relative binding free energy” value was 0.16 kcal/mol.
Consider TCGTTCACGTGGGGTG, for which the “relative binding free energy” value worked out at 0.17 kcal/mol.
Next, AGATTCACGTGAGCGG: 0.36 kcal/mol; TCGGACACGTGGGCGG: -0.03 kcal/mol.
As to AAAAGCACGTGTAGGT, the “relative binding free energy” value was -0.18 kcal/mol.
The same measure for AGTGTCACGTGAGATT: 0.2 kcal/mol; for TTAGACACGTGCCGGG: -0.07 kcal/mol.
Regarding TGGTACACGTGAGTTC, the “relative binding free energy” value stood at 0.27 kcal/mol.
In the case of ATTGCCACGTGTGGGG, the “relative binding free energy” value was -0.16 kcal/mol.
On to TGGTGCACGTGCGAAT, for which the “relative binding free energy” value is -0.05 kcal/mol.
Consider AATGTCACGTGGTGCG, for which the “relative binding free energy” value is -0.04 kcal/mol.
As for CAGGTCACGTGGATTG, the “relative binding free energy” value stood at 0.12 kcal/mol.
GATGGCACGTGTTTCA: the “relative binding free energy” value came to 0.02 kcal/mol.
On to GATGACACGTGGTTTA, for which the “relative binding free energy” value turned out to be 0.07 kcal/mol.
As for ACTGGCACGTGGAAGT, the “relative binding free energy” value is -0.09 kcal/mol.
Next, TGCGTCACGTGAGATT: 0.38 kcal/mol.
The same measure for TCGTACACGTGAATTG: 0.44 kcal/mol.
For GTATTCACGTGCGTAA, the “relative binding free energy” value was determined as 0.26 kcal/mol.
As for TTAGCCACGTGGTTGG, the “relative binding free energy” value was -0.16 kcal/mol.
For the sequence TGGGCCACGTGGTGCA, the “relative binding free energy” value was -0.1 kcal/mol.
Regarding GCGCGCACGTGGAGTG, the “relative binding free energy” value was -0.12 kcal/mol.
With AGTGACACGTGGCTGT, the “relative binding free energy” value is -0.11 kcal/mol.
As to AAGTGCACGTGGCAGG, the “relative binding free energy” value is -0.09 kcal/mol.
As for GATATCACGTGTAGAG, the “relative binding free energy” value came to 0.27 kcal/mol.
On to TGGGTCACGTGTATAA, for which the “relative binding free energy” value was -0.09 kcal/mol.
In the case of GATATCACGTGGGTCG, the “relative binding free energy” value was -0.11 kcal/mol.
In the case of TCTGGCACGTGGTCGA, the “relative binding free energy” value is -0.14 kcal/mol.
In the case of GTTGGCACGTGGGCAA, the “relative binding free energy” value is -0.18 kcal/mol.
In the case of TAGATCACGTGTCATG, the “relative binding free energy” value was found to be 0.07 kcal/mol.
TTGTACACGTGTATTG: the “relative binding free energy” value turned out to be 0.14 kcal/mol.
For GTTATCACGTGGACTT, the “relative binding free energy” value amounted to 0.2 kcal/mol.
For the sequence GTTTACACGTGAGTGC, the “relative binding free energy” value amounted to 0.31 kcal/mol.
GGTGGCACGTGCAGGA: the “relative binding free energy” value was -0.02 kcal/mol.
In the case of TAAGGCACGTGGAGGA, the “relative binding free energy” value is -0.09 kcal/mol.
As to CAAGTCACGTGGTAGA, the “relative binding free energy” value amounted to 0.1 kcal/mol.
Next, CGGAGCACGTGGGTAT: -0.28 kcal/mol; TGTGTCACGTGACTTG: 0.05 kcal/mol; TTTATCACGTGAAGCT: 0.28 kcal/mol.
GGTAGCACGTGAATTT: the “relative binding free energy” value was 0.41 kcal/mol.
For the sequence GTGTGCACGTGGAAGA, the “relative binding free energy” value was determined as 0.06 kcal/mol.
Regarding GTTTGCACGTGCGGGC, the “relative binding free energy” value was determined as 0.1 kcal/mol.
Turning to ACGTACACGTGTAGTG, the “relative binding free energy” value came out at 0.02 kcal/mol.
Consider AGAGACACGTGGGTGT, for which the “relative binding free energy” value was -0.16 kcal/mol.
With TACTGCACGTGGATTT, the “relative binding free energy” value stood at 0.09 kcal/mol.
The same measure for GTGGCCACGTGCGGGA: -0.02 kcal/mol; for TTGGCCACGTGTAGGT: -0.04 kcal/mol; for ATGTGCACGTGCTAGG: -0.21 kcal/mol.
The same measure for ATATGCACGTGGGGGT: -0.21 kcal/mol; for CGCGACACGTGAGGGG: 0.22 kcal/mol.
The same measure for CGTGGCACGTGATAGG: -0.06 kcal/mol; for TTGGGCACGTGTCCAT: 0 kcal/mol.
For TGGGCCACGTGGTTCT, the “relative binding free energy” value was -0.25 kcal/mol.
Next, AGAGCCACGTGGGGGT: -0.14 kcal/mol.
Regarding CGGTTCACGTGTGTCT, the “relative binding free energy” value amounted to 0.29 kcal/mol.
Next, AAGGACACGTGGCGGT: -0.04 kcal/mol; GGTAGCACGTGTGACG: 0.05 kcal/mol; AGGAGCACGTGAGTGG: 0.25 kcal/mol.
As to GTGGACACGTGTTGGT, the “relative binding free energy” value was determined as 0.03 kcal/mol.
TCCTGCACGTGGGGGC: the “relative binding free energy” value was -0.14 kcal/mol.
With TTATACACGTGTAAAG, the “relative binding free energy” value is 0.2 kcal/mol.
As to AGTGGCACGTGTGTCG, the “relative binding free energy” value is -0.12 kcal/mol.
As for AGTGTCACGTGCGCTT, the “relative binding free energy” value was determined as 0.04 kcal/mol.
